Data on 50 compounds can be found in PubChem BioAssay AID1159614 (National Center for Advancing Translational Sciences (NCATS), 2016).

Hit rate of the full screen: of about 45,000 compounds, about 65 (0.1%) were called active. Calls follow the shape of the dose curve; as a rule, active = well fitted activation curve with a large enough effect; inconclusive = small, poorly fitted or top-dose-only effect; inactive = no such curve, though single readings can be large or run the other way. Some of the results follow.

The target of the test is Galactocerebrosidase (Homo sapiens) (UniProt P54803). As to the kind of experiment: A Novel Cell-Based Assay to Identify Small Molecules for B -Galactocerebrosidase. Also: 0% is about no effect; nearly all actives have a fitted effect of over 65% in size. Particulars: 145M-Twi-hGALC-G270D cells (Twitcher mouse brain line with human GALC G270D), HMU-beta-Gal fluorescence, 48 h; series mostly up to 57.5 µM; activation: at the top concentration. Summed up: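 Mutant human GALC (G270D), stably expressed in a Twitcher mouse brain cell line lacking endogenous GALC, is measured in live-treated cells via 6-hexadecanoylamino-4-methylumbelliferyl-β-galactoside hydrolysis (0.1 mM final, pH 5.2) with fluorescent detection.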
Chain of UniProt P54803 (P54803 whole entry, looked up): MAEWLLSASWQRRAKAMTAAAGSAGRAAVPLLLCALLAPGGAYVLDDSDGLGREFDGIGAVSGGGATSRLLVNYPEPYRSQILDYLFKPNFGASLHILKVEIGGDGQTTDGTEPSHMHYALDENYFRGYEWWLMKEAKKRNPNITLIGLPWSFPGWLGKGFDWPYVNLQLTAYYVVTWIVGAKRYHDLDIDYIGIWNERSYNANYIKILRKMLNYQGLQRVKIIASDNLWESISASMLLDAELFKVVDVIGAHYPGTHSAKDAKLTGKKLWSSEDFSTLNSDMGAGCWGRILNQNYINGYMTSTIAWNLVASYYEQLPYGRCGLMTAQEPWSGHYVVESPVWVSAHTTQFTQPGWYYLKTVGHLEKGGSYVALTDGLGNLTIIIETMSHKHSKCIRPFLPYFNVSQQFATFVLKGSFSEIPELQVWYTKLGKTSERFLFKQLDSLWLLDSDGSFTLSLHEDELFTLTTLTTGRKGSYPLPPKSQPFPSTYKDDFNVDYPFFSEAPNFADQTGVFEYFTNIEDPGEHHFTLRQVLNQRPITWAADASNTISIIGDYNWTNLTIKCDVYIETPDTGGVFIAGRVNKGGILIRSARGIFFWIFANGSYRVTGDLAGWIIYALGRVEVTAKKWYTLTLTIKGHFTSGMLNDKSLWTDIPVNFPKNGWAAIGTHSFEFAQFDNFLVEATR
With `Cc1cc(=O)n2nc(N3CCC(C(=O)NCc4ccccc4F)CC3)sc2n1`, the “activation” value was inactive: -13.9%. Same read-out and setting: under `CC1N=C2c3ccccc3N=C(SCC(=O)NCc3ccc(Cl)cc3)N2C1=O` (stereo not given) stands inactive: -11.2%. Take `COCCCNC(=O)c1sc2nc(C)c(C(=O)Nc3ccc(Cl)cc3)c(-c3ccc(Br)cc3)c2c1N`: the “activation” value is inactive: -8.27%.

Consider `CCCNC(C)(C)COC(=O)c1ccccc1`, for which the “activation” value is inactive: 6.07%. On the same count and under the same terms, under `CCN(CC)c1nn2c(=O)c(C(=O)NCc3cccc(OC)c3OC)cnc2s1` stands inactive: -11.5%.

For the compound `COc1cccc(NC(=O)CSc2cc(C)[nH]c(=O)n2)c1`, the “activation” value was inactive: -13.5%. The same measure, in the same setting: under `COc1ccc(CNC(=O)c2cnn(-c3ccc(OC)cc3)c2C2CCN(C(=O)OC(C)(C)C)CC2)cc1` stands inactive: -21.2%. Still for that read-out and setting: under `Cc1c2cnn(-c3ccccc3)c(=O)c2c(C)n1CC(=O)N1CCN(c2cccc(Cl)c2)CC1` stands inactive: -17.4%. The same measure, in the same setting: the figure for `Cc1nc(SCC(=O)Nc2ccccc2Cl)cc(-c2ccccc2)n1` is inactive: -12.2%; for `COc1cccc(-c2n[nH]c3c2C(c2cccc(O)c2)N(C)C3=O)c1` (stereo not given) it is inactive: -2.43%. Turning to `CCS(=O)(=O)N1CC(=O)N(c2cccc(C)c2C)C(C)(C(=O)NC2CCCCCC2)C1` (stereo not given), the “activation” value is inactive: 7.01%. Same read-out and setting: the figure for `Cc1c(C(=O)N(C)c2ccccc2)sc2nc(-c3ccc(F)cc3)cn12` is inactive: -9.3%; for `O=C(Nc1cccc2cccnc12)c1cccc2c(Br)cccc12` it is inactive: -19.2%; for `O=C1c2oc3ccccc3c(=O)c2C(c2ccccc2F)N1Cc1ccc2c(c1)OCO2` (stereo not given) it is inactive: -21%.

Turning to `CCc1cc2c(cc3c(=O)n(CC(=O)NC4CCC(C)CC4)nc(CC)n32)s1` (stereo not given), the “activation” value was inactive: -3.88%. Take `Cc1cccc2c1-c1sc(C(=O)Nc3ccccc3C(N)=O)cc1CO2`: the “activation” value is inactive: -8.43%.

For `CCC(=O)Nc1cc(-c2nc3cc(C)cc(C)c3o2)ccc1C`, the “activation” value was inactive: 18.1%. As to `Cc1ccccc1OCC(=O)NCC(c1ccc(Cl)cc1)N1CCOCC1` (stereo not given), the “activation” value was inactive: -1.84%. Same read-out and setting: the figure for `O=C(Nc1ccc(Br)cc1F)c1ccc2nc(CCc3ccccc3)oc2c1` is inactive: -10.4%; for `CN(C(=O)CSc1cn(CC(=O)N2CCCC2)c2ccccc12)c1ccccc1` it is inactive: -9.9%; for `O=C1c2[nH]nc(-c3ccccc3O)c2C(c2cccc(Br)c2)N1Cc1ccncc1` (stereo not given) it is inactive: -6.84%. Same read-out and setting: under `Cc1ccc2onc(CNC(=O)N(C)Cc3ccccc3)c2c1` stands inactive: -15.8%; under `COc1ccc(-n2c(Cc3ccccc3)nnc2SCc2nc(-c3ccccc3C)no2)cc1`, inactive: -15.2%. As to `CCN(CC)CCNC(=O)c1sc2nc(C)cc(C)c2c1-n1cccc1`, the “activation” value is inactive: -16.3%. Regarding `CCOC(=O)c1ccc(NC(=O)c2cccc3c(=O)c4c([nH]c23)CCCC4)cc1`, the “activation” value is inactive: -8.95%. On to `CCc1ccccc1NC(=O)Cn1c(C(=O)OC)cc2oc(C)cc21`, for which the “activation” value was inactive: -10.3%.

On to `COc1ccc(NC(=O)Cn2ccn(Cc3ccccc3)c(=O)c2=O)cc1Cl`, for which the “activation” value was inactive: 1.06%. The same measure, in the same setting: under `CC(C)Oc1ccc(CNC(=O)c2ccc3c(c2)N(Cc2ccc(F)cc2)CCS3)cc1` stands inactive: -13.5%. Turning to `O=C(C1CCCCC1)N(Cc1cccnc1)c1nc2c(F)cccc2s1`, the “activation” value was inactive: 12.4%. With `Clc1ccccc1CNc1nc2ccccc2c2nc(-c3ccccc3)nn12`, the “activation” value is inactive: 14.6%.

With `CCOC(=O)c1cc(-c2ccccc2)n(-c2cccc(C(=O)NC(C)CC)c2)c1C` (stereo not given), the “activation” value was inactive: -11.2%. On the same count and under the same terms, the figure for `O=C(Cn1ncc2c3ccccc3n(Cc3ccc(F)cc3)c2c1=O)NC1CCCCCC1` is inactive: -12.7%; for `CCn1c(CN2CCCCC2)nc2cc(NC(=O)COc3cc(C)ccc3C(C)C)ccc21` it is inactive: -17.3%; for `Cc1ccc(N(C)S(=O)(=O)c2ccc(-c3cnc(C4CC4)o3)cc2)cc1` it is inactive: -15.8%.

On to `COc1ccc(Nc2nc(-c3ccccc3)c3cc(Br)ccc3n2)cc1`, for which the “activation” value was inactive: -29.4%.

`COc1cc2c(cc1OC)C(COc1ccccc1OC)N(C(=O)c1ccc(S(=O)(=O)N3CCCC3)cc1)CC2` (stereo not given): the “activation” value is inactive: -19.7%. With `Cc1ccc(C)c(NC(=O)N2CCN(c3nnc(C)c4c(C)n(-c5ccccc5)nc34)CC2)c1`, the “activation” value is inactive: -19.1%.

For `Cn1cc(C(=O)N2CCN(c3cccc(Cl)c3)CC2)c(=O)c2cc(S(=O)(=O)N3CCCC3)ccc21`, the “activation” value is inactive: 3.62%.

Turning to `COc1ccc(C)cc1NC(=O)CN1CCCN(S(=O)(=O)c2ccc(Br)cc2)CC1`, the “activation” value was inactive: -17.2%. The same measure, in the same setting: under `CCOc1ccccc1NC(=O)c1c(NC(=O)Cc2ccccc2)sc2c1CCCC2` stands inactive: -6.04%; under `COC(=O)CSCc1nc(-c2ccc(C(=O)OC)cc2)oc1C`, inactive: -23%; under `O=C(CCNS(=O)(=O)c1cccc2nonc12)Nc1ccc(F)cc1`, inactive: -10.8%. On to `COc1ccc(N2CCN(C(=O)c3cn(C4CCCCC4)c(=O)c4c3c3ccccc3n4C)CC2)cc1`, for which the “activation” value was inactive: -6.13%.

On to `COC(=O)c1cccc(Nc2c(-c3ccc(O)cc3)nc3nc[nH]n23)c1`, for which the “activation” value was inactive: -11.5%.

In the case of `CCOc1ccc(NC(=O)CSc2ccc3ccccc3n2)cc1`, the “activation” value is inactive: -1.74%.

Take `COC(=O)c1cc(OC)c(OC)c(OC)c1NC(=O)c1cc(=O)n(C)c(=O)n1C`: the “activation” value was inactive: -10.7%. Consider `O=C(O)Cc1cccc2ccccc12`, for which the Potency result is “inactive”. For `COCCCNC(=O)CN1C(=O)COc2ccc(S(=O)(=O)N3CCOCC3)cc21`, the “activation” value was inactive: 21.6%. Still for that read-out and setting: under `CCOC(=O)C1CCCN(C(=O)c2cc3c(=O)n(C)c4ccccc4c3s2)C1` (stereo not given) stands inactive: -9.17%. For `Cc1c(CNC(C)c2ccccc2)c(C(=O)O)c(C)n1Cc1c(F)cccc1Cl` (stereo not given), the “activation” value is inactive: -7.83%.
